Source: the RNAGym collection of RNA variant scans (doi:10.1073/pnas.2313332121)
Variants at the floor of the assay are shown more often than the library holds them.

B1: TPR 5TU (parent)
chain: GGAUCUUCUCGAUCUAACAAAAAAGACAAAUCUGCCACAAAGCUUGAGAGCAUCUUCGGAUGCAGAGGCGGCAGCCUUCGGUGGCGCGAUAGCGCCAACGUUCUCAACUAUGACACGCAAAACGCGUGCUCCGUUGAAUGGAGUUUAUCAUG

Variants of: B1
Assay: polymerase ribozyme fitness, log enrichment relative to wild type (log ratio); higher = more active; in vitro selection for triplet polymerase activity
Summary of the method: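 Input and output libraries were sequenced on Illumina after a single in vitro selection round, run in triplicate on PCR-built, transcribed mutant libraries of each subunit of a heterodimeric triplet polymerase ribozyme. Selection annealed libraries to a biotinylated primer, the partner subunit and triplets, incubated them frozen at −7 °C, then gel-excised extended constructs for streptavidin-bead capture and RT-PCR. Genotypes with ≥10 input reads and ≥1 read per output were kept. Fitness is the logarithm, taken in base 2, of genotype enrichment divided by wild-type enrichment, using inverse-variance-weighted replicate averages.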

Polymerase ribozyme fitness (log ratio), ≤ -4.2:
G67C U77G A89C A120C
G67U A107U
G67U C69G G133U
G67U C76A C85G C87G
G67U G74U C87A C108U
G67U U77A G83U C87G U134A G141C U144G
G68A A89U
G68A C76A G80U C105U
G68A C76U C93U U127A
G68A C79U G84U C125U
G68A C85G A106G A137G A138U
G68A C85U G94U U101G C149G U151C
G68A C95U C108A
G68A C96A C125A
G68A C96U U101G C131U
G68A C103G
G68A G70A C76U C96G C99A U104A U139A
G68A G71A G100A U139G
G68A G80C U102C A138U A142C
G68A G81U G92A A137C
G68A G84U A89U G94A
G68A G86C G100A A115G
G68A G88C U102G
G68A G92C A121G A137G G143A
G68C C76G C85G G124C G143U
G68C C76G U90C C95A C105G
G68C C85G A98G A122U
G68C C85U A89C
G68C C87G A107G C114G G124U
G68C C103G A119C
G68C G70A G83U U144A
G68C G80A C93U
G68C G84C A106G G124A
G68C G88C C129A
G68C G88U
G68C G94A
G68C G128U
G68U C79G A107U C123A A137U A150G
G68U C85U C123U C129U G143U
G68U G80A G143A
G68U G86A
G68U G117A U148G
C69A C75A G84C C116U G117C A150C
C69A C79A C85G C105G G126U U144C U148A
C69A C87U G88C A97C G117C
C69A G70A G86U U90A A115G C125G A138G
C69A U111C
C69G C76G
C69G C95U C99A C105G C118A G136U
C69G G81C U109C
C69U A73G C129G U144C
C69U C75U U82G U148C
C69U C76A A89G C96G C118G A122G
C69U C76U C95A U104G C131A
C69U C96U A97U G100C
C69U G84A U101G C116U G133U
C69U U77G G86C C87U A91G G117U
C69U U102G G126A C132U U134A U151G
G70A C76A G83U G88C
G70A G81U G94C U145C
G70A G84A C99U C105U U148C
G70A U78C G94C A98G G100C U104G G117A U151A G152U
G70C C99G
G70U C87A A91G U111C A137U
G70U G84U U101G
G71A A91U C103A G117U
G71A C76G G100U
G71A C85A C118A G133U G140U
G71A C93A
G71A C95A C99A U127C
G71A C96A U127A U144C
G71A C96G U104C C131G
G71A C103A A147C
G71A G80C A91U
G71A G94U C96U G100U A106U C114U
G71C C76G
G71C C76U G86A C87G U104G
G71C C93A A97C C103G U104G
G71C C108G
G71C C131A U134G G136A U139A
G71C G84U A97C
G71U A91U
G71U C79G
G71U C149G
G71U G84A C96A A122G
G71U G84A C131G
G71U U102G A107G
C72A A91U
C72A A97U C105U
C72A A107G U139A
C72A C87U
C72A G80A C96A
C72A G84U A107U A147C
C72A U77A
C72G C93A A119G G126A U134C
C72G G84U A91U C95U A106G C114U U134A
C72G G88A C99U G133C
C72G G88C A119U A138U U144A
C72G G88U U102G A115G U139G G143U
C72G G133U
C72U C76A A91G C93U G124U U151G
C72U C79A G94C U139C
C72U G81C G83C C99G
C72U G81U C85U A91C U101G A106U U139A
C72U G88U A97G G128C
C72U G88U A107G G117C C118U U148A
C72U U130G G133U
A73C G84C A138G
A73C G86U U109G
A73C G88U U130G
A73C G92U G128U
A73C U78G G83A C95A U148A
A73G A91G U102A G143A
A73G C87A G117A
A73G C116A A142U
A73G G80C C132A G141C
A73G G84C C96U C114U A137C
A73G G92U C99U A115G U148G
A73G G94A C125A G133U
A73G U90G A119G
A73G U102G C116A U146G U148G
A73U A137C
A73U C93A G152A
A73U G80A C87U G152C
A73U G83C C87G G140C
A73U U78G C87U
G74A C75G A91U A120U C132U
G74A C76G
G74A C85U A106U A138U
G74A G86U G88U C93U U145A
G74C A138C
G74C C108A A110G
G74C U134A U135C A138G
G74C U144A
G74U U77C C96A A97U C116G G128A U139A
C75A C93G
C75A C129G
C75A G94C G100A C108A C129G U146G
C75G C85G
C75G C85G G112U G140C
C75G C85U G140U
C75G C87A A120C G141C
C75G C93A C105A C114U A121U
C75G C93G U111C A113U G136A U145A
C75G G83U C96U A147G A150U
C75G G84A A122U C132U
C75G G92U U101G
C75U A91G G133C U145C
C75U A91G G140A
C75U C87A A137G A147C
C75U C99A C118G C132A A137U A142G U145A
C75U C108U A119G
C75U G86A U139C
C76A C85A A97C C108G U111G
C76A C85U U151A
C76A C87G A91C C118G
C76A G80A G136C C149U
C76A G88U C105G A142G
C76G A91U C103U A120C U139C
C76G C85U
C76G C85U C103U A119U
C76G G81C G84A A97C C99G U104A A142C U151A
C76G G83A U102A
C76G G88A U102C
C76G G94C A150C
C76G G94C C95A U139A A142C U145G
C76U A91U A107C G136A
